Measurements from paper PMC4336329 (PLoS ONE, 2015).
Screen size: about 310,000 compounds; about 14,000 (4.5%) showed an effect of 50% or more. Effects have a minus sign here. This is one part of the list.

target: human ether-à-go-go-related gene (hERG) potassium channel (human, UniProt Q12809); assay: primary screen, population patch clamp on CHO cells stably expressing hERG
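Further: peak tail current of the secondary pulse compared with the same well before compound.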

Sequence of human ether-à-go-go-related gene (hERG) potassium channel (Q12809 whole entry, looked up): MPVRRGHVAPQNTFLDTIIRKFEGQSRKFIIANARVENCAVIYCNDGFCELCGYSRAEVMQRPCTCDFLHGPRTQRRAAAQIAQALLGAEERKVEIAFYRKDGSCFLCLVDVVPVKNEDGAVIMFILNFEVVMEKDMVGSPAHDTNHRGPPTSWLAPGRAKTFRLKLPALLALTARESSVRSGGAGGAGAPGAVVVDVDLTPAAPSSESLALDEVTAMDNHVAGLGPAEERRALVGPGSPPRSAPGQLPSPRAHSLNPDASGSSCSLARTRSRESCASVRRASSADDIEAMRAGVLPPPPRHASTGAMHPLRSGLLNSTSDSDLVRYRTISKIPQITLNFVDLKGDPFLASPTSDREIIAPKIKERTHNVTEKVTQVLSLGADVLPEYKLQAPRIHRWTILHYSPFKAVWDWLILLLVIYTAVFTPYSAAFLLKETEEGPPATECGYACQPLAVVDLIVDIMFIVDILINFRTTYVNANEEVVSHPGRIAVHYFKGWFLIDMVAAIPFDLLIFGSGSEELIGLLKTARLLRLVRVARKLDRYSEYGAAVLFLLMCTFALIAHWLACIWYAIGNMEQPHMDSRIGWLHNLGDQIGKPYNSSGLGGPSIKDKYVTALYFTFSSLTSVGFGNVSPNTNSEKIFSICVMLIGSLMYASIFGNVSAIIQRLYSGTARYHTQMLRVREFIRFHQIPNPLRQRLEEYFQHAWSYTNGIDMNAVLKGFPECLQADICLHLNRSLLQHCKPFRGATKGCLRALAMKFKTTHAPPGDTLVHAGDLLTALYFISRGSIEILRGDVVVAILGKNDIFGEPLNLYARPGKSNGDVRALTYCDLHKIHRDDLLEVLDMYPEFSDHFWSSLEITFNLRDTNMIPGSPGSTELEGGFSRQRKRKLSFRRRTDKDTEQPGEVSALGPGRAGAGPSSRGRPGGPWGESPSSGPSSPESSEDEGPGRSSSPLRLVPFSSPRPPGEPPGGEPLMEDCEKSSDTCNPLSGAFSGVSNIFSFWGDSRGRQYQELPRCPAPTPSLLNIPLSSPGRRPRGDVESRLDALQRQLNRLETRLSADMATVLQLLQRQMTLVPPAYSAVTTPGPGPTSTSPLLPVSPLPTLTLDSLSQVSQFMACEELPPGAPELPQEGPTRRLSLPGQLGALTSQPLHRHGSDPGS

| SMILES | hERG current change (%, negative = inhibition) at 10uM |
| --- | --- |
| O=C(Cc1cc2ccccc2o1)NCc1ccc(F)cc1 | 6.51% |
| CCOC(=O)c1c(NC(=O)CSc2nnc(-c3cccnc3)o2)sc(C)c1C | 6.19% |
| CCOc1cc(/C=N/NC(=O)Cn2nc([N+](=O)[O-])cc2C)ccc1OCc1ccc(F)cc1 | 13.3% |
| O=C(Cn1c(=O)c2cccn2c2ccccc21)NCCc1ccc(Cl)cc1 | 12.2% |
| CCc1ccc(NS(=O)(=O)c2ccc3[nH]cc(C(=O)N4CCc5ccccc54)c(=O)c3c2)cc1 | 2.85% |
| CCN(c1ccccc1)S(=O)(=O)c1ccc(OC)c(NC(=O)c2cccs2)c1 | -3.51% |
| COC(=O)c1cn(NC(=O)c2cccc(F)c2)c(=O)c2ccccc12 | 26.7% |
| CC12CC3(C)CC(C)(C1)CC(C(=O)NCC(=O)O)(C2)C3 | 33.9% |
| Cc1ccc(S(=O)(=O)N2CCN(CCC#N)CC2)cc1 | 10.7% |
| Oc1ccc(-c2nc3ccc4ccccc4c3c3c2CCC3)cc1O | 3.49% |
| COC(=O)c1cccc(NC(=O)N2C[C@H]3C[C@@H](C2)c2cccc(=O)n2C3)c1 | 4.71% |
| C=CCn1c(SCc2c(F)c(F)c(F)c(F)c2F)nc(O)cc1=O | 5.4% |
| CC(=O)O[C@@H]1[C@H]2CC[C@@H]3[C@]1(C[C@@H](OC(C)=O)[C@@]1(O)C([C@@H]4O[C@@H]4C1(C)C)[C@]3(C)O)C[C@@]2(C)O (some centres unmarked) | 3.96% |
| COc1ccc(/C(C)=N/NC(=S)NCCc2ccccc2)cc1 | 21.6% |
| CCN(CC)c1ccc(-n2c(O)c(C=C3N=c4ccccc4=N3)sc2=S)cc1 | -8.82% |
| Cc1nn(-c2ccc(F)cc2)c(Cl)c1C(=O)NCC1CCCO1 (centres unmarked) | -26.3% |
| CCCCC1=CC2=CC(=O)C(C)(O)C(=O)C2=CO1 (centres unmarked) | 20.3% |
| CCc1ccc(NC(=O)CSc2nnc(SCC(=O)Nc3ccc(CC)cc3)n2N)cc1 | -3.06% |
| COC(=O)c1ccc(-c2ccc(CNCC(O)c3ccccc3)o2)cc1.Cl (centres unmarked) | 1.63% |
| Cc1cc(=O)oc(C)c1C(=O)NCc1ccco1 | 12% |
| COc1ccc(/C=N/NC(=S)NC2CCS(=O)(=O)C2)cc1OC (centres unmarked) | 2.77% |
| CC(=O)NC(CCS(C)(=O)=O)C(=O)Nc1cccc(C(C)=O)c1 (centres unmarked) | 7.75% |
| Cc1cc(C)n2cc(CSc3ccc(Br)cc3)nc2n1 | -63.8% |
